Results as given in PubChem BioAssay AID686978 (National Center for Advancing Translational Sciences (NCATS), 2013).
The campaign covered roughly 420,000 compounds. About 64,000 (15%) were called active. Inconclusive means that the source gave no clear call. Such entries were picked first, then a sample of the others. Calls come from the whole dose curve; as a rule, active = well fitted inhibition curve with a large enough effect; inconclusive = small, poorly fitted or top-dose-only effect; inactive = flat fitted curve, though single readings scatter. Potencies of inconclusive entries are left out as doubtful fits.

Test: qHTS for Inhibitors of human tyrosyl-DNA phosphodiesterase 1 (TDP1): qHTS in cells in absence of CPT; note: nearly all actives have a fitted effect of over 55% in size
Conditions: DT40 Tdp1-/- hTDP1 cells, no CPT, ATP luminescence, 48 h; activity change, negative = growth inhibition: at 46.2 µM (top of the series) unless noted
Outline: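 Stably hTDP1-transfected Tdp1-null chicken DT40 cells were treated with library compounds minus camptothecin and grown for at least 48 hr at 37 °C, after which cellular ATP was quantified by luminescence.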
% is set by controls: 0 for no effect and ±100 for the full control effect; potency is the fitted concentration of half-maximal effect; tags give direction and shape of the fitted curve.

Which Potency does the source give for `COc1cccc(CC2(CO)CCCN(Cc3nc(-c4cccs4)oc3C)C2)c1` (stereo not given) here?
The Potency was active: 20.6 µM.

Which Potency does the source give for `CC(=O)Nc1nonc1-c1nnc(SCc2cccc(Br)c2)n1C` here?
Its Potency is active: 18.4 µM.

Which Potency does the source give for `COC(=O)C1=C(C)Nc2c(c(=O)n(C)c(=O)n2C)C1c1ccc(Cl)cc1` (stereo not given) here?
The Potency was inconclusive [inhibitor, partial curve, poor fit].

For `COc1ccc(C2/C(=C(/O)c3ccc4c(c3)CC(C)O4)C(=O)C(=O)N2CCCn2ccnc2)cc1OC` (stereo not given), which Potency is on record?
The Potency was “inactive”.

With `Cc1c(Cl)cccc1NC(=S)N/N=C/c1ccccc1Cl` as the molecule, how does the Potency read?
The Potency was inconclusive [inhibitor, partial curve].

For `COc1cccc(CNC(=O)c2ccc(Cl)c(S(=O)(=O)N3CCOCC3)c2)c1`, which Potency is on record?
The Potency was active: 4.11 µM.

For `Cc1[nH]c(=O)nc(NN=Cc2ccc(Cl)cc2)c1C(=O)Nc1ccc(Cl)cc1`, which Potency is on record?
The Potency was inconclusive [inhibitor, single point].

With `CCOC(=O)c1c(NC(=O)CN2C(=O)NC(C)(c3ccccc3)C2=O)sc(C)c1C` (stereo not given) as the molecule, how does the Potency read?
Its Potency is inconclusive [inhibitor, single point].

With `CC(C)c1ccc(-c2noc(SCC(=O)N3CCCCC3)n2)cc1` as the molecule, how does the Potency read?
The Potency was active: 11.6 µM.

Which Potency does the source give for `COCCn1c(SCC(=O)c2[nH]c(C)c(C(C)=O)c2C)nc2ccccc2c1=O` here?
Its Potency is inconclusive [inhibitor, single point].

For `Cc1cccc(-n2nnnc2SCC(=O)N(CC(C)C)c2c(N)n(CC(C)C)c(=O)[nH]c2=O)c1`, which Potency is on record?
The Potency was “inactive”.

With `COc1ccc(C(=O)CSc2nnc(-c3ccoc3C)n2CC2CCCO2)cc1` (stereo not given) as the molecule, how does the Potency read?
The Potency was inconclusive [inhibitor, single point].

Which Potency does the source give for `Cc1ccc(CN2C(=O)N(c3ccc(C)c(Cl)c3)S(=O)(=O)c3ccccc32)cc1` here?
Its Potency is inconclusive [inhibitor, single point].

Which Potency does the source give for `C[C@]12c3[nH]c4cc(-c5ccco5)ccc4c3CCN1C(=O)[C@@H](CC(=O)NCCN1CCOCC1)C[C@@H]2C(=O)N1CCCCC1` here?
The Potency was inconclusive [inhibitor, single point].

For `CCOC(=O)CN(C(=O)CSc1nnc(Cc2ccccc2)n1-c1ccc(C)cc1)c1ccccc1`, which Potency is on record?
The Potency was inconclusive [inhibitor, single point].

For `Cc1ccccc1OCC(=O)N/N=C/c1cn(Cc2ccccc2)c2ccccc12`, which Potency is on record?
Its Potency is inconclusive [inhibitor, partial curve].

With `Cc1ccc(NC(=O)C2CCN(S(=O)(=O)c3c(C)noc3C)CC2)cc1C` as the molecule, how does the Potency read?
The Potency was inconclusive [inhibitor, single point].

Which Potency does the source give for `COc1cccc(NC(=O)CN2C(=O)C3(SCC(=O)N3c3cc(C)cc(C)c3)c3ccccc32)c1` (stereo not given) here?
Its Potency is inconclusive [inhibitor, single point].

For `C[C@H](NC(=O)N1CCC(Cc2ccccc2)CC1)C(=O)O`, which Potency is on record?
The Potency was “inactive”.

For `Cc1ccc(-n2ncc3c2CCCC3NC(=O)CCn2ccnc2C)cc1C` (stereo not given), which Potency is on record?
Its Potency is inconclusive [inhibitor, single point].

For `CCN(CC)c1ncnc2c1ncn2[C@H]1CN(Cc2cccs2)C[C@@H](CO)O1`, which Potency is on record?
The Potency was inconclusive [inhibitor, single point].

With `O=C(NC1CCCC1)c1ccc(CS(=O)(=O)Cc2ccccc2Cl)o1` as the molecule, how does the Potency read?
The Potency was “inactive”.

For `CCOC(=O)/C=c1\s/c(=C\c2ccc3cc(OC)ccc3c2)c(=O)n1CC(=O)NCC1CCCO1` (stereo not given), which Potency is on record?
The Potency was active: 6.51 µM.

With `CCOC(=O)Sc1nc2ncncc2[nH]1` as the molecule, how does the Potency read?
Its Potency is “inactive”.

With `N#Cc1ccc(NC(=O)COCc2cc(-c3ccc(F)cc3)on2)cc1` as the molecule, how does the Potency read?
The Potency was active: 20.6 µM.

With `c1ccc(Cc2ccc(OCCn3cncn3)cc2)cc1` as the molecule, how does the Potency read?
The Potency was inconclusive [inhibitor, single point].

For `O=C(NCc1cccnc1)c1cc(C2CCCCN2S(=O)(=O)c2cccc3cccnc23)on1` (stereo not given), which Potency is on record?
Its Potency is inconclusive [inhibitor, single point].

Which Potency does the source give for `C=CCn1c(N)cc(=O)nc1SCC(=O)N1CCN(c2ccc(F)cc2)CC1` here?
The Potency was “inactive”.

With `O=C(Nc1ccccc1N1CCN(C(=O)c2ccc(Cl)cc2)CC1)c1ccc([N+](=O)[O-])o1` as the molecule, how does the Potency read?
The Potency was inconclusive [inhibitor, single point].

For `O=C(Nc1ccc(Cl)cc1C(F)(F)F)c1cc(S(=O)(=O)NCc2ccccc2)ccc1F`, which Potency is on record?
The Potency was inconclusive [inhibitor, single point].

Which activity change, negative = growth inhibition does the source give for `CCc1ccc(NC(=O)CCc2nc3cccnc3n2Cc2ccc(OC)cc2)cc1` here?
Its activity change, negative = growth inhibition is inconclusive: -32.4% [inhibitor].

For `Cn1c(=O)c2ncn(CC(=O)Nc3cccc(-c4nc5ccccc5s4)c3)c2n(C)c1=O`, which Potency is on record?
The Potency was active: 14.6 µM.

With `COc1ccccc1CC(=O)Nc1sc2c(c1C(N)=O)CCCC2` as the molecule, how does the Potency read?
The Potency was “inactive”.

Which Potency does the source give for `Cc1cc(C)n(C(=O)C(C(=O)c2ccccc2)C(C)C)n1` (stereo not given) here?
The Potency was inconclusive [inhibitor, partial curve, poor fit].

Which Potency does the source give for `Cc1cc(C(=O)CSc2nnc(-c3cccs3)n2Cc2ccccc2)c(C)n1C` here?
Its Potency is inconclusive [inhibitor, single point].

With `COC(=O)c1nc(NC(=O)c2ccc(F)cc2)n[nH]1` as the molecule, how does the Potency read?
The Potency was “inactive”.

With `CCN(CC(=O)Nc1ccc(NC(C)=O)cc1)C(=O)CSc1nnc(-c2ccco2)n1CC` as the molecule, how does the Potency read?
Its Potency is “inactive”.

Which Potency does the source give for `CNc1c(NS(=O)(=O)c2cc(Cl)ccc2OC)c(=O)oc2ccccc12` here?
The Potency was inconclusive [inhibitor, partial curve, poor fit].

Which Potency does the source give for `COc1ccc2cc(C(c3nnnn3CCc3ccccc3)N3CCCC(C)C3)c(=O)[nH]c2c1` (stereo not given) here?
Its Potency is inconclusive [inhibitor, single point].

With `O=C(CCc1nnc(Cc2cccc(C(F)(F)F)c2)o1)NCCc1ccccc1F` as the molecule, how does the Potency read?
The Potency was inconclusive [inhibitor, single point].

Which Potency does the source give for `O=C(NC1(O)C(=O)c2ccccc2C1=O)c1ccccc1` here?
Its Potency is inconclusive [inhibitor, single point].

For `O=C(c1ccccc1)c1ccc(N2CCN(C(=O)c3ccc(F)cc3F)CC2)c(F)c1`, which Potency is on record?
The Potency was inconclusive [inhibitor, single point].

With `O=C(COc1cccc2cccnc12)NNC(=O)Nc1ccccc1` as the molecule, how does the Potency read?
Its Potency is “inactive”.

For `COC(=O)c1c(-c2cccs2)csc1NC(=O)COc1ccc(C(C)C)cc1`, which Potency is on record?
The Potency was active: 20.6 µM.

With `Cc1ccc(N(CC(=O)NC2CCCCC2)S(=O)(=O)c2c(C)nn(C)c2C)cc1` as the molecule, how does the Potency read?
Its Potency is “inactive”.

For `CCOC(=O)c1cnc2c(Cl)cccc2c1NCCCN1CCOCC1`, which Potency is on record?
Its Potency is inconclusive [inhibitor, single point].

Which Potency does the source give for `O=C(COC(=O)c1ccc(Cl)nc1)NCCc1ccccc1` here?
Its Potency is “inactive”.

With `CCC(=O)c1ccc(OCC(=O)OCC(=O)NCCC2=CCCCC2)cc1` as the molecule, how does the Potency read?
Its Potency is “inactive”.

With `COc1ccc(CNC(=O)CCS(=O)(=O)c2ccc3c(c2)CC(C)N3C(=O)C2CC2)cc1` (stereo not given) as the molecule, how does the Potency read?
Its Potency is active: 3.66 µM.

With `CN(C)c1ccc(CNn2cnnc2SCc2ccccc2F)cc1` as the molecule, how does the activity change, negative = growth inhibition read?
The activity change, negative = growth inhibition was inconclusive: -35.3% [inhibitor].

For `COc1ccc(N2CCN(C(=O)c3ccc(N(C)S(=O)(=O)c4ccc(C)cc4)cc3)CC2)cc1`, which Potency is on record?
Its Potency is active: 16.4 µM.

With `COC(=O)c1sc2ncccc2c1OCc1ccccc1Cl` as the molecule, how does the activity change, negative = growth inhibition read?
The activity change, negative = growth inhibition was inconclusive: -34.3% [inhibitor].

For `COc1ccc2cc3cc(C(=O)NC4CC4)sc3nc2c1`, which Potency is on record?
Its Potency is active: 18.4 µM.

With `O=c1cc(CN(Cc2ccccc2)Cc2ccccc2)c2ccccc2o1` as the molecule, how does the Potency read?
The Potency was inconclusive [inhibitor, single point].

With `N#Cc1ccc(/C=N/NC(=O)c2ccccc2F)cc1` as the molecule, how does the Potency read?
Its Potency is “inactive”.

With `CS(=O)(=O)Nc1cccc(-c2nc(N3CCNCC3)c3ccccc3n2)c1` as the molecule, how does the Potency read?
Its Potency is inconclusive [inhibitor, single point].

For `CCOC(=O)C1=C(C)N(C)C(=O)NC1c1cccc2ccccc12` (stereo not given), which Potency is on record?
The Potency was active: 25.9 µM.

With `CC1=C(C(=O)OC2CCCC2)C(c2cccc(Cl)c2Cl)CC(=O)N1` (stereo not given) as the molecule, how does the Potency read?
Its Potency is active: 23.1 µM.

With `O=C(COn1nnc2ccc(C(F)(F)F)cc21)Nc1nnc(-c2ccccc2)o1` as the molecule, how does the Potency read?
The Potency was inconclusive [inhibitor, single point].

Which activity change, negative = growth inhibition does the source give for `Cc1ccc(/C=N/n2c(C3CCCCC3)n[nH]c2=S)o1` here?
Its activity change, negative = growth inhibition is inconclusive: -25.9% [inhibitor].

With `CCOc1ccc(-n2ccnc2SCC(=O)Nc2ccc(OC)cc2OC)cc1` as the molecule, how does the Potency read?
Its Potency is inconclusive [inhibitor, single point].

With `CC(CCc1ccc(O)cc1)NC(c1ccccc1)c1ccc(Cl)cc1` (stereo not given) as the molecule, how does the Potency read?
The Potency was inconclusive [inhibitor, single point].

With `COc1ccc(CNC(=O)CN(C(=O)CCC(=O)Nc2nccs2)c2ccc(C)cc2)cc1` as the molecule, how does the Potency read?
Its Potency is inconclusive [inhibitor, partial curve, poor fit].

Which Potency does the source give for `Cc1ccc(Cl)cc1N1CCN(C(=O)c2cn(C)c3ccc(S(=O)(=O)N4CCCC4)cc3c2=O)CC1` here?
The Potency was inconclusive [inhibitor, single point].

With `O=C(CSc1nnc(-c2cccs2)n1CC1CCCO1)N1CCCC1` (stereo not given) as the molecule, how does the Potency read?
The Potency was “inactive”.

For `COC(=O)c1ccccc1NC(=O)C12CC3CC(C1)CC(n1cnc(Cl)n1)(C3)C2`, which Potency is on record?
Its Potency is active: 16.4 µM.

Which Potency does the source give for `COc1ccc(S(=O)(=O)N2CCCOC2CNC(=O)C(=O)NCCCn2ccnc2)cc1` (stereo not given) here?
The Potency was “inactive”.

With `Cn1cc([N+](=O)[O-])c(C(=O)NCc2cc3cc(Cl)ccc3[nH]2)n1` as the molecule, how does the Potency read?
The Potency was inconclusive [inhibitor, single point].

With `COc1cc(NC(=O)COC(=O)/C=C/c2ccc(O)c(OC)c2)cc(OC)c1` as the molecule, how does the Potency read?
The Potency was inconclusive [inhibitor, single point].

For `c1ccc2c(OCCCCN3CCOCC3)cccc2c1`, which Potency is on record?
Its Potency is inconclusive [inhibitor, single point].
